In PubChem BioAssay AID686970 (National Center for Advancing Translational Sciences (NCATS), 2013):
Among all 360,000 compounds or so, about 6,000 (1.7%) were called active. Inconclusive results, whose numbers are uncertain, are shown with a selection of clear calls. Calls come from the whole dose curve; as a rule, active = well fitted cell-killing curve with a large enough effect; inconclusive = small, poorly fitted or top-dose-only effect, or effect the other way; inactive = flat fitted curve, though single readings scatter. Potencies of inconclusive entries are left out as doubtful fits.

Experiment: qHTS for induction of synthetic lethality in tumor cells producing 2HG: qHTS for the HT-1080-NT fibrosarcoma cell line;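 note: NT is the 2HG producing partner of a matched IDH1 knockdown line; nearly all actives have a fitted effect of over 55% in size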;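 for activity, negative = less viability: 0% = DMSO-treated cells and -100% = media-only wells without cells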
Details: HT-1080-NT fibrosarcoma viability, CellTiter-Glo ATP luminescence, 48 h; activity, negative = less viability: at 46.1 µM (top of the series) unless noted
Method in brief: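 HT-1080-NT; 750 cells/well; 5% FBS RPMI; 48 h compound, 37 degrees C; CellTiter-Glo luminescence; curve fitting and curve-class assignment.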
Potency is the fitted concentration of half-maximal effect; tags give direction and shape of the fitted curve.

Row | SMILES | Potency | activity, negative = less viability
1 | COc1ccc(CNCCC(c2ccc(F)cc2)c2ccc(OC(C)C)cc2)cc1OC (stereo unspecified) | active: 23.1 µM | 
2 | OCCN(CCO)c1cc2c3ccccc3ccc2c2ccccc12 | inconclusive [cytotoxic, single point] | 
3 | C/C(=N\NC(=O)COc1cccc(C)c1)c1ccc2ccccc2c1O | active: 20.6 µM | 
4 | N#C/C(C(N)=O)=C1/CCCN1Cc1ccccc1 |  | inactive: -2.64%
5 | CCOC(=O)C1(Cc2ccc(Cl)cc2)CCN(C(C)Cc2ccc(O)c(OC)c2)CC1 (stereo unspecified) |  | inactive: -27.4%
6 | CCc1ccc(C(O)c2ncc(-c3cccc(F)c3)[nH]2)cc1 (stereo unspecified) |  | inactive: -24.8%
7 | CC(CCC(C)C(C)(C)C)[C@@H]1CC[C@H]2C3C[C@H](OS(O)(=S)=S)[C@H]4C[C@H](OS(O)(=S)=S)[C@@H](OS(O)(=S)=S)C[C@]4(C)[C@H]3CC[C@]12C (stereo partly specified) (tested in a mixture with another compound) | active: 9.2 µM | 
8 | COc1ccc(NC(=O)c2sc3nc(N4CCCC4)c4c(c3c2N)CC(C)(C)OC4)c(OC)c1 |  | inactive: -0.774%
9 | COc1cc(/C=N/Nc2nc3c(c(=O)n(C)c(=O)n3C)n2Cc2ccccc2)ccc1OC(=O)c1ccco1 |  | inactive: 0.234%
10 | CCOc1cc(C(=O)Nc2cnccn2)cc(OCC)c1OCC | inconclusive [cytotoxic, single point] | 
11 | Cc1cc(C)c(CN2CCC(n3nccc3NC(=O)CCOc3ccccc3)CC2)cc1C | inconclusive [cytotoxic, single point] | 
12 | CC(C)c1ccc(CN2CCC2(C)C(=O)Nc2cnc3ccccc3c2)cc1 (stereo unspecified) | inconclusive [cytotoxic, partial curve, poor fit] | 
13 | C[C@H](CO)N1C[C@H](C)[C@@H](CN(C)C(=O)Nc2ccccc2)Oc2cc(Br)ccc2S1(=O)=O |  | inactive: -8.9%
14 | COc1cccc(CN(C)C(=O)c2ccc(OCC(=O)Nc3cccc(C(F)(F)F)c3)c(OC)c2)c1 | inconclusive [cytotoxic, partial curve, poor fit] | 
15 | COc1ccc2nc(NC(=O)C3CCN(S(=O)(=O)c4cccs4)CC3)sc2c1 | inconclusive [cytotoxic, partial curve] | 
16 | NCC(c1ccccc1Cl)c1c[nH]c2ccccc12 (stereo unspecified) | inconclusive [cytotoxic, single point] | 
17 | COc1ccc(/C(C)=N/NC(=O)CNC(=O)CCc2ccccc2)c(OC)c1 | inconclusive [cytotoxic, single point] | 
18 | Cc1cccn2c(=O)c3cc(C(=O)NC4CCCC4)n(C)c3nc12 | inconclusive [cytotoxic, partial curve] | 
19 | CCCCn1c(N)c(N(CCOC)C(=O)c2cccc(S(=O)(=O)N3CCCCCC3)c2)c(=O)[nH]c1=O |  | inactive: 13.8%
20 | COc1ccc2nc(NC(=O)c3ccccc3O)sc2c1 | inconclusive [cytotoxic, single point] | 
21 | O=C(NC(NC1CCS(=O)(=O)C1)C(Cl)(Cl)Cl)c1ccc(Br)cc1 (stereo unspecified) | inconclusive [cytotoxic, partial curve] | 
22 | CCOC(=O)c1ccc(NC(=O)C2COc3ccccc3O2)cc1 (stereo unspecified) |  | inconclusive: 15.3%
23 | Cn1cc([N+](=O)[O-])c(C(=O)Nc2ccc(C(=O)N3CCCCC3)cc2)n1 | inconclusive [cytotoxic, single point] | 

Row | SMILES | Potency | activity, negative = less viability
24 | COc1ccc(NC(=O)CSc2nc(N)c3cc4c(nc3n2)CCCC4)c(OC)c1 | inconclusive [cytotoxic, single point] | 
25 | CCOC(=O)C1CCN(C(=O)CNC(=O)c2nn(-c3ccc(OC)cc3)c(=O)c3ccccc23)CC1 |  | inactive: -0.658%
26 | O=C(CCN1CCN(C/C=C/c2ccccc2)CC1)Nc1ccc(Cl)cc1 |  | inactive: 0.918%
27 | COc1ccc(CCNC(=O)/C(C#N)=C2\N=C(NC(=O)c3ccco3)c3ccccc32)cc1 | inconclusive [rising, partial curve] | 
28 | O=C(Nc1ccccc1C(=O)NCCCN1CCOCC1)c1ccc(F)cc1 |  | inactive: -7.45%
29 | O=C(NCCc1cn[nH]c1)c1ccc2oc(CCc3ccccc3)nc2c1 |  | inactive: -0.609%
30 | CCOC(=O)[C@H]1[C@H]2COc3ccc(C)cc3[C@@H]2N2C(=O)c3cc(OC)c(OC)cc3NC(=O)[C@@]12C |  | inactive: -7.65%
31 | COc1cc(NC(=O)NCC2CCN(Cc3ccccc3F)CC2)cc(OC)c1 |  | inconclusive: 3.94%
32 | O=C(NNC(=O)c1ccc([N+](=O)[O-])cc1Cl)c1ccncc1 |  | inactive: 4.8%
33 | Cc1ccccc1CS(=O)(=O)Cc1ccc(C(=O)NCc2ccco2)o1 |  | inactive: 3.6%
34 | CCCC(=O)NC(c1ccco1)c1cc(Cl)c2cccnc2c1O (stereo unspecified) | inconclusive [cytotoxic, single point] | 
35 | COc1ccc(N/C=C(\C#N)S(=O)(=O)c2ccc(Cl)cc2)c(OC)c1 |  | inactive: -0.476%
36 | C[C@@H]1CN([C@H](C)CO)C(=O)CCCn2nncc2CO[C@H]1CN(C)C(=O)OCc1ccccc1 | inconclusive [rising, single point] | 
37 | CCCn1c(NCc2ccc3c(c2)OCO3)nc2ccccc21 | inconclusive [cytotoxic, single point] | 
38 | CNC(=O)c1sc(Nc2ccc(OCc3ccccc3)cc2)nc1C |  | inconclusive: -34.5% [cytotoxic]
39 | O=C1CC(c2ccccc2)CC(O)=C1C=NCc1ccccc1Cl (stereo unspecified) | active: 5.62 µM | 
40 | Cc1cc(C)c(C#N)c(SCC(=O)c2ccc(Cl)cc2Cl)n1 | inconclusive [cytotoxic, full curve] | 
41 | Cn1c(CCNC(=O)c2ccccc2)nc2ccccc21 | inconclusive [rising, single point] | 
42 | Cc1ccc(CNC(=O)c2[nH]c(C(F)(F)F)nc2-c2ccccc2)cc1 | inconclusive [cytotoxic, single point] | 
43 | CC(/C=N/NC(=O)Cc1cc(=O)[nH][nH]1)=C\c1ccccc1 |  | inactive: -1.61%
44 | Cc1nn(C)c(Cl)c1CN1CCCC(C(=O)Nc2ccc(-c3cscn3)cc2)C1 (stereo unspecified) |  | inactive: -6.43%
45 | COc1ccc(NC(=O)/C=N/O)cc1 |  | inactive: -12.9%
46 | CCOC(=O)C(C)/C(C)=N/NC(N)=S (stereo unspecified) | inconclusive [cytotoxic, full curve, poor fit] | 
